Test results reported in PubChem BioAssay AID1345083 (National Center for Advancing Translational Sciences (NCATS), 2018).
Screen size: about 94,000 compounds; about 6,200 (6.6%) were called active. Inconclusive results, whose numbers are uncertain, are shown with a selection of clear calls. Calls come from the whole dose curve; as a rule, active = well fitted inhibition curve with a large enough effect; inconclusive = small, poorly fitted or top-dose-only effect; inactive = flat fitted curve, though single readings scatter. A potency beside an inconclusive call is a rough fit, not a confirmed value.

test: Cytotoxic Profiling in HEK 293 Cell Line of Diverse Libraries Using Quantitative High-Throughput Screening; conditions: HEK 293 viability, ATP luminescence (CellTiter-Glo), 48-72 h; series mostly up to 115 µM; note: nearly all actives have a fitted effect of over 60% in size
In short: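 HEK 293 cells seeded at 250 cells/well were exposed to compound for 48 or 72 hr at 37 degree Celsius. Viability taken as ATP content by CellTiter-Glo luminescence.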
Potency is the fitted concentration of half-maximal effect; tags give direction and shape of the fitted curve.

Row | SMILES | Potency
1 | Cc1cn(CCNC(=O)c2cn(C3CCC(N)CC3)nn2)nn1 (stereo not given) | inconclusive: 100 µM [inhibitor, single point]
2 | CCn1nccc1C(=O)N1CC(Oc2ccc(-c3noc(-c4cccnc4)n3)cc2)C1 | inconclusive: 3.98 µM [inhibitor, full curve, poor fit]
3 | CCN(Cc1cnn(CC)c1)C(=O)c1c(C)oc2c1CN(Cc1ccc(F)cc1)CC2 | inactive
4 | Cn1ncc2c(C(=O)NC3CCOC3)cc(-c3cccc(C(F)(F)F)c3)nc21 (stereo not given) | inconclusive: 50.1 µM [inhibitor, partial curve, poor fit]
5 | O[C@H]1CC[C@@H](Cc2cc(-c3ccc(F)cc3)on2)O[C@@H]1CNC1CCNCC1 | inactive
6 | CC(C)c1cnc(-c2ccccc2)[nH]1 | inconclusive: 112 µM [inhibitor, partial curve, poor fit]
7 | COC[C@H]1CCCN1C[C@@H]1C=C(C)[C@H](Cc2nnc(-c3cccnc3)o2)C[C@H]1C(C)C | inconclusive: 112 µM [inhibitor, partial curve, poor fit]
8 | CN(C)C(=O)c1cc(-c2ccccc2F)nc2c1cnn2C | inactive
9 | COc1ccc(CC(=O)NC2CCN(Cc3ccc(-c4ccsc4)cc3)C2)cc1 (stereo not given) | inconclusive: 39.8 µM [inhibitor, full curve, poor fit]
10 | CC(C)NC(=O)c1nc2sccn2c1-c1ccc(F)cc1 | inactive
11 | CCOC(=O)[C@@H]1CN(C(=O)N(C)C)[C@H]2c3ccc(OC)cc3O[C@@H]12 | inconclusive: 31.6 µM [inhibitor, full curve]
12 | CCCC(=O)N1CC2(CCCN2Cc2cccnc2)Cc2ccccc21 (stereo not given) | inconclusive: 79.4 µM [inhibitor, partial curve, poor fit]
13 | O=C(CN1CCCc2nc(-c3ccncc3)ncc2C1=O)N1CCc2ccccc2C1 | active: 35.5 µM
14 | CNC(=O)C1CCN(C(=O)c2coc(COc3ccc4ccc(OC)cc4c3)n2)C1 (stereo not given) | inconclusive: 89.1 µM [inhibitor, single point]
15 | CC(C)C(=O)NCC1CN(Cc2ccccc2)C(=O)c2c(ccnc2-c2ccc(OCC(=O)O)cc2)O1 (stereo not given) | active: 25.1 µM
16 | Cc1cc(OC2CN([S+](=O)([O-])c3cccs3)C2)ccc1F | inconclusive: 112 µM [inhibitor, partial curve, poor fit]
17 | COc1ccccc1C(=O)N1CCc2c(c(-c3nncn3C(C)C)nn2C)C1 | inactive
18 | CC(=O)NC1(C)CCN(Cc2cnc(-c3ccc4c(ccn4C)c3)s2)CC1 | inconclusive: 100 µM [inhibitor, partial curve]
19 | O=C(Nc1ccc(F)cc1)C1CCCCN1Cc1ccc(-c2cccs2)cc1 (stereo not given) | inconclusive: 31.6 µM [inhibitor, partial curve, poor fit]
20 | Cc1ccc(NC(=O)NCCc2ncc(C)n2C2CCC2)cc1C | active: 79.4 µM
21 | CC(C)(C)c1nnc([C@H]2CCN(Cc3cnc4ccccc4c3)C2)o1 | inconclusive: 79.4 µM [inhibitor, partial curve, poor fit]
22 | O=C(NCc1cc2n(n1)CCCNC2)C1Cc2ccccc2S(=O)(=O)N1 (stereo not given) | inactive

Row | SMILES | Potency
23 | COCCNC(=O)C1CCc2sc(C(=O)N(C)C)cc2C1 (stereo not given) | inactive
24 | CC(C)CC(=O)N1CCC(N2C(=O)C3(CCCC3)C2c2ccccc2)CC1 (stereo not given) | inconclusive: 56.2 µM [inhibitor, partial curve, poor fit]
25 | O=C(Nc1cc(Cl)cc(Cl)c1)N1CCCC1c1nncn1C1CCCC1 (stereo not given) | inconclusive: 50.1 µM [inhibitor, partial curve, poor fit]
26 | COc1ccc(C(=O)N2CCCC3(CC(c4cccc(C(F)(F)F)c4)=NO3)C2)cc1 (stereo not given) | inconclusive: 50.1 µM [inhibitor, partial curve, poor fit]
27 | CCOc1ccc2c(n1)CCN(C(=O)Nc1ccccc1OCC)C2 | inconclusive: 79.4 µM [inhibitor, single point]
28 | Cc1nc([C@H]2CCN(Cc3ccccc3)C[C@H]2NC(=O)C2CCOCC2)n[nH]1 | inactive
29 | c1ccc(CN2CCC(Cc3ccc(CN4CCCC4)cc3)CC2)nc1 | inconclusive: 89.1 µM [inhibitor, single point]
30 | CC(=O)c1cccc(C(=O)N2CCC3(CC2)N=C(c2ccc(C)cc2)NO3)c1 | inconclusive: 89.1 µM [inhibitor, single point]
31 | O=C(NC1CCCN(Cc2ccc(-c3cncnc3)cc2)C1)c1ccc(C(F)(F)F)cc1 (stereo not given) | inconclusive: 31.6 µM [inhibitor, partial curve, poor fit]
32 | COc1ccc(N2CCN(C(=O)Cn3c(-c4cccc(Cl)c4)nc(C)c(CCO)c3=O)CC2)cc1 | active: 44.7 µM
33 | COC(=O)C1=C(C)N(Cc2ccccc2F)C(=O)CC1c1ccc(F)cc1F (stereo not given) | inconclusive: 17.8 µM [inhibitor, full curve, poor fit]
34 | O=C(Cc1ccc(Cl)cc1)N1CCC2(CC1)NC(=O)N(c1cccc(F)c1)N2 | inconclusive: 89.1 µM [inhibitor, single point]
35 | CCOCCNC(=O)C1CCCN1Cc1ccc(-c2cc(C)cc(C)c2)cc1 (stereo not given) | active: 35.5 µM
36 | c1ccc(-n2cc(CN(Cc3ccccn3)CC3CCCO3)nn2)cc1 (stereo not given) | inconclusive: 89.1 µM [inhibitor, single point]
37 | O=C(CCc1ccc(CC2CCN(C(=O)NCC3CCCO3)CC2)cc1)NCC1CC1 (stereo not given) | inconclusive: 50.1 µM [inhibitor, partial curve, poor fit]
38 | O=C(NC1CCCN(c2ccnc3ccnn23)C1)c1ccc(C(F)(F)F)cc1 (stereo not given) | active: 28.2 µM
39 | Cn1nccc1OCc1cn2c(=O)n(C)cc(-c3ccsc3)c2n1 | inconclusive: 112 µM [inhibitor, partial curve]
40 | COCc1ncc(C)n1C1CCN(C(=O)CCc2c[nH]c3ccccc23)C1 (stereo not given) | inactive
41 | COc1ccc(-c2nc(C(=O)NCc3cccnc3)n3ccccc23)cc1 | inconclusive: 89.1 µM [inhibitor, single point]
42 | CCN(CC)CCCNC(=O)c1cn2ccnc(-c3ccccc3)c2n1 | inconclusive: 25.1 µM [inhibitor, full curve, poor fit]
43 | CNC(=O)[C@H]1C[C@H](Oc2ccccc2)CN1C(=O)c1cccc(C)c1 | inactive
44 | O=C(NCC1CC1)C1CCCCN1Cc1ccc(-c2cccs2)cc1 (stereo not given) | inconclusive: 20 µM [inhibitor, full curve, poor fit]

Row | SMILES | Potency
45 | Cc1ccoc1C(=O)N1CCc2c(nc(-c3cccnc3)nc2N(C)C)C1 | inconclusive: 89.1 µM [inhibitor, single point]
46 | CC(C)(C)NC(=O)Cc1cccn1-c1cccc(Cl)c1 | inconclusive: 89.1 µM [inhibitor, partial curve, poor fit]
47 | O=c1c2nc(Nc3cccc(F)c3)ccc2ncn1-c1cccnc1 | inconclusive: 126 µM [inhibitor, single point]
48 | CN(Cc1cccnc1)C1CN(C(=O)c2ccccc2F)C1 | inactive
49 | COc1ccc(CCc2nc3nccc(-c4cccs4)n3n2)cc1 | inconclusive: 79.4 µM [inhibitor, partial curve, poor fit]
50 | COCc1ccc2c(c1)c(OC(C)(C)C(=O)NCCCn1ccnc1)nn2CCC(C)C | inactive
51 | CCNc1ncnc2sc3c(c12)CCN(C(=O)NCCOC)C3 | inactive
52 | CS(=O)(=O)Nc1ccc(C2(C(=O)NCc3ccccc3Cl)CCCCC2)cc1 | inconclusive: 44.7 µM [inhibitor, partial curve, poor fit]
53 | Cc1ccccc1Cn1cc(-c2ccncc2)cc1C(=O)NC(C)c1ccccn1 (stereo not given) | inconclusive: 89.1 µM [inhibitor, single point]
54 | CC[C@H]1CN(C(=O)c2ccc(F)cc2)CC[C@H]1CC(=O)NCc1ccccc1OC | inconclusive: 70.8 µM [inhibitor, full curve, poor fit]
55 | O=C(c1ccc2nc[nH]c2c1)N1CCCC2(C1)Nc1cccnc1NC2=NC1CCCC1 (stereo not given) | inactive
56 | Cc1ccc(C(=O)N2CCN(C(=O)c3nc4cccnc4n(CCc4ccccc4)c3=O)CC2)cc1 | inconclusive: 50.1 µM [inhibitor, partial curve, poor fit]
57 | CC(=O)NC[C@H]1O[C@@H](Cc2nc(-c3ccc(OC(F)(F)F)cc3)no2)[C@H](O)[C@@H]1O | inconclusive: 22.4 µM [inhibitor, partial curve, poor fit]
58 | Oc1ccccc1CN1CCNc2cnc(-c3ccccc3)cc2C1 | active: 63.1 µM
59 | O=C(Nc1ccc2nnc(-c3ccc(C(=O)N4CCSCC4)cc3)n2c1)C1CCC1 | inconclusive: 50.1 µM [inhibitor, partial curve, poor fit]
60 | O=C(NC1CCCCC1)N1Cc2[nH]cnc2C[C@H]1c1nc(-c2ccccc2)no1 | inconclusive: 112 µM [inhibitor, single point]
61 | COc1cccc(-c2cc(C3CCN(C(=O)NCCc4ccccc4)CC3)[nH]n2)c1 | inconclusive: 89.1 µM [inhibitor, single point]
62 | CNC(=O)c1nc2cccnc2n(-c2ccc(N(C)C)cc2)c1=O | inactive
63 | COCC1CN(C2CCC2)CC12CCN(C(=O)c1nccc3ccccc13)CC2 (stereo not given) | inconclusive: 44.7 µM [inhibitor, partial curve, poor fit]
64 | CC1(c2ccccc2)N(Cc2ccccc2C#N)C(=O)OC12CCN(Cc1ccccn1)CC2 (stereo not given) | inconclusive: 28.2 µM [inhibitor, full curve]
65 | Cn1cc(CN2C[C@H](C(=O)Nc3cccnc3)C[C@H]2c2cccc(C(F)(F)F)c2)cn1 | inconclusive: 100 µM [inhibitor, partial curve]
